± gives the standard deviation of the averaged measurements. Whole data set: some 33,000 sequences, median “E-score (dimensionless, -0.5 to 0.5)” near -0.046, cut for the highest 2% near 0.36. The list shows a part of the results.
What follows are sequences tested on T1, SpTbr T-box DNA-binding domain (GST fusion) (assay: PBM E-score of 8-mer (E-score (dimensionless, -0.5 to 0.5)); Tbr is Tbrain of the sea star Patiria miniata (Pm) or the sea urchin Strongylocentrotus purpuratus (Sp); higher = stronger binding preference; most listed sequences are background and not binding sites). Conditions: the construct has about 5 more residues each side.
T1 sequence: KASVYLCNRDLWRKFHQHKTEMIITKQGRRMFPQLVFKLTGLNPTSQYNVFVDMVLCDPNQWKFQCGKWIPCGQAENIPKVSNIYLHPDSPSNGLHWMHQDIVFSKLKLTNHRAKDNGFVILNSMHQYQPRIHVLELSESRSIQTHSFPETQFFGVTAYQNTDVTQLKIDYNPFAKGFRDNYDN
Outline: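 Primer extension turned Universal Agilent oligonucleotide arrays double-stranded. They were incubated with 200 nM protein in PBS (pH 7.5); the protein was a GST-fused Tbr T-box DNA-binding domain expressed in BL21 E. coli at 20 °C and purified on glutathione. Every ungapped 8-mer was scored from the scanned, quantified probe intensities, and the Universal PBM Analysis Suite gave each an enrichment E-score averaged over duplicate arrays.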

Row | Sequence | PBM E-score of 8-mer
1 | CAATCGCC | 0.016 ± 0.078
2 | AGCGATCG | 0.0673 ± 0.027
3 | ATCAGCAC | 0.222 ± 0.051
4 | AATTCAAT | -0.13 ± 0.03
5 | AGTCGAAC | -0.0231 ± 0.03
6 | ACCCAATA | -0.101 ± 0.017
7 | AGCGCTGC | -0.00503 ± 0.035
8 | CAACACAA | 0.172 ± 0.046
9 | ATAACATG | 0.0164 ± 0.08
10 | GCGCGGCC | 0.0312 ± 0.075
11 | ACGCCCTG | 0.1 ± 0.043
12 | CATGCGCA | 0.0447 ± 0.0094
13 | AATGGGCT | -0.0148 ± 0.1
14 | TGGGGTAA | -0.1604 ± 0.001
15 | CCGACGCA | -0.12 ± 0.091
16 | AACCGGAA | -0.0908 ± 0.02
17 | AAGAGGGG | -0.0371 ± 0.042
18 | CCGCGTCG | -0.113 ± 0.076
19 | GCTTTAAA | -0.0638 ± 0.0097
20 | GATAATAC | -0.18 ± 0.095
21 | ATACATAT | 0.00895 ± 0.052
22 | AATGTAAG | -0.0885 ± 0.01
23 | ACGCAGGA | -0.197 ± 0.052
24 | AGAGGGCA | -0.0956 ± 0.073
25 | GCGCCCAC | 0.238 ± 0.098

Row | Sequence | PBM E-score of 8-mer
26 | ACGAAACT | 0.133 ± 0.0054
27 | ATTCGTCC | -0.226 ± 0.013
28 | ATATACGA | -0.294 ± 0.066
29 | CGCAGCGC | 0.0713 ± 0.046
30 | ATAGCGAC | 0.191 ± 0.0099
31 | ACATGTCT | 0.117 ± 0.05
32 | AAAGTGAG | 0.217 ± 0.0053
33 | AAGCAACG | 0.0438 ± 0.048
34 | GAACCGCA | -0.00701 ± 0.015
35 | AACCTAGA | -0.042 ± 0.1
36 | ATGACTGA | -0.135 ± 0.071
37 | CTAGTGGA | -0.0602 ± 0.015
38 | AATGCTAC | -0.187 ± 0.1
39 | CGCATTCA | 0.0689 ± 0.063
40 | GTCTCTTA | -0.347 ± 0.015
41 | CCGCAACA | 0.0118 ± 0.013
42 | CGCATCAG | 0.0129 ± 0.043
43 | CCGTTCTA | -0.13 ± 0.032
44 | CGCGCCAA | 0.276 ± 0.0051
45 | TGAAGGAA | -0.165 ± 0.12
46 | ACGGGTCG | -0.00861 ± 0.033
47 | ATATCACC | 0.263 ± 0.018
48 | ATTTAATG | -0.17 ± 0.084
49 | ATGTAGCC | -0.159 ± 0.068
50 | ACATTGGA | -0.00588 ± 0.085

Row | Sequence | PBM E-score of 8-mer
51 | ACGAAGCT | -0.11 ± 0.043
52 | AGAGCCGC | 0.00354 ± 0.061
53 | ATCAACCA | -0.112 ± 0.0075
54 | CCGAGCCG | -0.117 ± 0.01
55 | CCGGTTAC | -0.0168 ± 0.021
56 | ATGATCAA | -0.116 ± 0.014
57 | GGTCCTAC | -0.312 ± 0.052
58 | GCTGATCA | 0.179 ± 0.059
59 | TATTGAAA | -0.12 ± 0.12
60 | ATTCTTGA | -0.149 ± 0.058
61 | ATTGCCCG | -0.19 ± 0.013
62 | AGCGCTGA | 0.0449 ± 0.0044
63 | CATGGCAG | -0.0797 ± 0.0087
64 | AACAACCC | 0.164 ± 0.048
65 | CTGTCCTA | -0.212 ± 0.027
66 | GATTCGTA | -0.0563 ± 0.056
67 | CATCGAAG | -0.125 ± 0.058
68 | AATTCTGG | -0.185 ± 0.043
69 | ATTCGTGC | 0.0379 ± 0.014
70 | ACTCTAAG | -0.088 ± 0.024
71 | CGATTGCA | 0.0731 ± 0.063
72 | ACTAGTCG | 0.081 ± 0.0035
73 | CCCCTTAG | -0.184 ± 0.068
74 | AAAGGCTT | -0.2 ± 0.039
75 | AATGTTGA | -0.0789 ± 0.084

Row | Sequence | PBM E-score of 8-mer
76 | TGATAGAA | -0.0293 ± 0.037
77 | GATTCTTA | -0.203 ± 0.062
78 | AAGTGCTG | 0.246 ± 0.04
79 | ACTCATTC | 0.0654 ± 0.058
80 | GTATATTA | -0.129 ± 0.14
81 | CGCTATCC | 0.15 ± 0.0043
82 | AGGTCTAC | -0.24 ± 0.034
83 | TCTCCAAA | -0.125 ± 0.17
84 | GCACTCGA | 0.0852 ± 0.007
85 | CGAATAGA | 0.115 ± 0.036
86 | CCTTGGCG | 0.245 ± 0.06
87 | ACTTATTA | 0.0431 ± 0.084
88 | ACCAGTTC | 0.0411 ± 0.019
89 | CATAAGCG | 0.082 ± 0.058
90 | GAGCTTAA | -0.251 ± 0.056
91 | CTTCCACC | -0.138 ± 0.056
92 | CCGGTACG | -0.1 ± 0.024
93 | AGGAGTAA | -0.0244 ± 0.029
94 | ATCAGGGA | -0.232 ± 0.029
95 | AAGTTGGC | 0.164 ± 0.024
96 | ATGCTATG | -0.0836 ± 0.038
97 | GCTGTTCC | -0.0355 ± 0.05
98 | ATCTAGTA | -0.14 ± 0.028
99 | GTCCGTAA | -0.212 ± 0.059
100 | CCGGAGAA | -0.0246 ± 0.0038

Row | Sequence | PBM E-score of 8-mer
101 | CGTGTGAC | 0.399 ± 0.012
102 | GCCATCCA | -0.0481 ± 0.055
103 | CTACTACC | -0.112 ± 0.033
104 | TGCCTTAA | -0.0697 ± 0.059
105 | ACACGTAA | 0.198 ± 0.014
106 | GGTTAAAA | -0.0212 ± 0.0034
107 | GGGAGACC | -0.123 ± 0.14
108 | GTGATGTA | 0.101 ± 0.021
109 | AACCCGCC | -0.0633 ± 0.025
110 | CTCACGCC | 0.397 ± 0.039
111 | GTACAGAA | -0.162 ± 0.013
112 | CACACTGA | 0.235 ± 0.0071
113 | ATATAGGG | -0.191 ± 0.11
114 | GTCGCCCA | 0.198 ± 0.0069
115 | CTTGTCAC | 0.39 ± 0.013
116 | CGTGGGTA | -0.0186 ± 0.14
117 | CTGAGTCC | -0.142 ± 0.055
118 | AGATGTGG | 0.0631 ± 0.036
119 | AGCATGAC | -0.0727 ± 0.016
120 | AATCGATC | -0.0423 ± 0.085
121 | GCAAGTAC | 0.0144 ± 0.0029
122 | GAAAGGGC | -0.121 ± 0.0016
123 | AAGACAAG | -0.16 ± 0.012
124 | TTCTCCAA | -0.107 ± 0.059
125 | GCAAGGCC | -0.162 ± 0.012

Row | Sequence | PBM E-score of 8-mer
126 | CGCTAACG | 0.373 ± 0.0088
127 | CCTAAACA | 0.00347 ± 0.059
128 | ATATCCAA | -0.0515 ± 0.011
129 | CCGAGCGC | 0.0157 ± 0.028
130 | AATTGTTC | 0.0645 ± 0.035
131 | TAGTCTAA | -0.202 ± 0.03
132 | GAGGTAGC | -0.102 ± 0.033
133 | ACAAAACG | 0.0152 ± 0.048
134 | AATAGTGT | 0.207 ± 0.018
135 | CGGTCACA | 0.302 ± 0.022
136 | ACCGGTCC | -0.309 ± 0.027
137 | AGCAGACC | -0.12 ± 0.02
138 | AAGTCGTG | 0.208 ± 0.025
139 | GACTAACA | 0.17 ± 0.0022
140 | CCTCTGTA | 0.0243 ± 0.041
141 | GGAGGGGA | -0.0561 ± 0.07
142 | GCCAACAA | 0.195 ± 0.062
143 | CCAGCAAG | -0.202 ± 0.012
144 | CCTATGCC | -0.203 ± 0.043
145 | CACGGCCA | 0.115 ± 0.058
146 | TGCGGTAA | 0.0466 ± 0.037
147 | CCGACGAG | 0.0831 ± 0.058
148 | CGGGGCAG | -0.0573 ± 0.064
149 | CTTGAATC | -0.202 ± 0.067
150 | CTGGAGGA | -0.0624 ± 0.0024

Row | Sequence | PBM E-score of 8-mer
151 | CAAGATCC | -0.0979 ± 0.055
152 | CACCCAAG | 0.198 ± 0.013
153 | GAGAACTA | 0.18 ± 0.0067
154 | TCATAGCA | 0.0536 ± 0.006
155 | TACCCCCA | -0.355 ± 0.015
156 | AGCCTTAC | -0.217 ± 0.027
157 | CGTGCTGA | 0.22 ± 0.0033
158 | AACCTAGG | -0.0376 ± 0.091
159 | GCCGGGAA | -0.00315 ± 0.045
160 | AAACGACG | 0.0405 ± 0.044
161 | CAGCATCC | -0.136 ± 0.017
162 | GATCCTGA | -0.149 ± 0.0074
163 | CCGAGGGC | -0.1066 ± 0.00054
164 | ACTCCTGC | -0.266 ± 0.017
165 | AAGCAGAG | -0.224 ± 0.015
166 | ATCTCGGG | 0.037 ± 0.043
167 | GCAGACCA | -0.213 ± 0.021
168 | ACGCGACA | 0.283 ± 0.0092
169 | GCACTTTA | 0.306 ± 0.024
170 | CATCTTAG | 0.0503 ± 0.11
171 | GTTTACCA | 0.0208 ± 0.048
172 | ATCGATAG | 0.0741 ± 0.14

Reference: the supplement of paper PMC4166925
